Measured values published in the RNAGym collection of RNA variant scans (doi:10.7554/elife.90254).
Read counts are not given, so values of variants with three or more changes are uncertain.

B1: OR4K15 (parent)
chain: GUUAACGGUCAUAGGCCAUGGAAACUAGGAGCACCAUUUCGCUGCCAGUGAAGAAAUGAACAAAGAAAAUCUGGGCCAGGCAGGCAUCAAAAGAAAUAGUCUUGCGCUCAACCAGAAAGUCUGUAAUCAUUUUAAGGGUA

Variants of: B1
Assay: self-cleavage, relative activity (ratio to wild type); higher = more cleavage; in vitro, sequencing; the parent is a self-cleaving ribozyme
U9C U57A A67U gave a self-cleavage of 0.93.
Variant A11G A47G A59G A66G has a self-cleavage of 0.72.
For A11G G44A A118G A129G, the self-cleavage was 0.49.
In the case of A11G A56G A68G, the self-cleavage is reported as 0.68.
In the case of C10U A30G G31U A95U, the self-cleavage is reported as 1.18.
Variant A11G A55G A95U U127A has a self-cleavage of 1.36.
A11G A62U A95U gave a self-cleavage of 1.42.
A11G A36U A95U A111G A117G showed a self-cleavage of 0.01.
Work on U9C U49C A114G U122G yielded a self-cleavage of 0.15.
For U9C U39C U102C, the self-cleavage was 1.58.
A11C G28A A33G gave a self-cleavage of 1.16.
For A11G A52G A54G A60G G79U, the self-cleavage was 0.32.
A11C G14U A54G gave a self-cleavage of 1.08.
In the case of A11G A55G A111G, the self-cleavage is reported as 0.05.
In the case of U9C G15U A24U U87C C112U U127C, the self-cleavage is reported as 0.01.
For A11G A18U A96U U130C, the self-cleavage was 0.36.
With A11G A78U U87C A129C U130C the self-cleavage was 0.06.
With A11G A33G A64G the self-cleavage was 0.85.
In the case of C10U G14A G137U, the self-cleavage is reported as 0.84.
Work on A11G A82U G83U yielded a self-cleavage of 0.35.
For U9C U37C A66G A91G, the self-cleavage was 1.65.
With A11G U19C C35A U70C A82U the self-cleavage was 0.17.
Variant C10U A52G A94G has a self-cleavage of 0.5.
For U9C A111G A126C, the self-cleavage was 0.02.
In the case of C10U A64G U70C, the self-cleavage is reported as 0.29.
With A11G A52G C105G the self-cleavage was 0.02.
With A11G A33G A66G A82G the self-cleavage was 0.38.
For C10U A51G A66C A68G U70A U133C, the self-cleavage was 0.5.
Variant A11C A82G U127C has a self-cleavage of 0.03.
In the case of A11G A52U A86G, the self-cleavage is reported as 1.15.
Work on U9C U19A A47G A68G yielded a self-cleavage of 0.77.
For U9C U38A A47C A52G A91G, the self-cleavage was 0.98.
Variant A11G U26C U97C has a self-cleavage of 0.17.
A11G A66G A68G A125G showed a self-cleavage of 0.57.
U9C U39A A62G A69U gave a self-cleavage of 0.38.
A11G U19A A22G C35A A59G gave a self-cleavage of 0.55.
U9G A59G A60G U131C gave a self-cleavage of 1.93.
A11G A18U A86U U131C gave a self-cleavage of 1.34.
With U9C A90G A116G the self-cleavage was 0.58.
In the case of U9C A94G A110G, the self-cleavage is reported as 0.14.
Work on U9C U38C A51G U87C U102C U131C yielded a self-cleavage of 2.51.
C10U A22U A52G U57C A82U A96G U97C U120C gave a self-cleavage of 0.02.
Variant A11G A118C U124C has a self-cleavage of 0.06.
With U9G A18G A92G the self-cleavage was 1.12.
With A11G A51G A59G A135U the self-cleavage was 0.69.
Work on U9G U37C U49G A55G yielded a self-cleavage of 0.79.
For A11G A18G U70C A86C A118G, the self-cleavage was 0.1.
With A11G A78G U108C the self-cleavage was 0.04.
Work on U9C U122A A125G A129G yielded a self-cleavage of 0.19.
Variant U9C U37C U57C A68G has a self-cleavage of 1.53.
U9C U26A A52G showed a self-cleavage of 1.41.
Variant U9C G84A A116G has a self-cleavage of 1.18.
A11G A64G U103C G106A showed a self-cleavage of 0.06.
U9G A78U U87C U127A gave a self-cleavage of 0.46.
U9G A22G G75A C76U A125G gave a self-cleavage of 0.03.
U9C C32U U72C A78U A91G U103A U108C U120C showed a self-cleavage of 0.
With U9C G20U A92G the self-cleavage was 1.53.
In the case of A11G A55U A82C U133C, the self-cleavage is reported as 0.25.
A11G A23G A96G U122A showed a self-cleavage of 0.
With U9C U19G G21A A116G G136A the self-cleavage was 1.78.
In the case of A11C U12A A33G A69G A89G, the self-cleavage is reported as 1.08.
C10U A30G C32U A47G U49C gave a self-cleavage of 1.32.
With U9C G41A G83A A118U the self-cleavage was 1.99.
A11G C105U G106U C109U U139C gave a self-cleavage of 0.02.
In the case of U9C C32U A52G A95G, the self-cleavage is reported as 1.45.
Work on A11C A22G A60G U100C yielded a self-cleavage of 1.3.
In the case of U9C U19A U38A G41A U139C, the self-cleavage is reported as 1.81.
A11G A62U A66C gave a self-cleavage of 0.56.
In the case of U9C U39A A52G A78G A118G, the self-cleavage is reported as 0.49.
A11G G75A U87C C88U showed a self-cleavage of 0.1.
In the case of U9C U102G A129G, the self-cleavage is reported as 0.59.
Variant A11G A67G A91G A116G has a self-cleavage of 0.3.
In the case of A11G A64G C77G, the self-cleavage is reported as 0.17.
Work on A11G A59G A91G yielded a self-cleavage of 0.74.
U9C A90G A95G U103A C121U gave a self-cleavage of 0.94.
For U9G U19A A24G U37A A54U A63G, the self-cleavage was 1.16.
A11G A68G A94U U103G gave a self-cleavage of 0.04.
With A11G A67G A92G A118G U130G the self-cleavage was 0.31.
For A11G A63G U72A, the self-cleavage was 0.1.
Work on A11G A30G G80A C109U A110G yielded a self-cleavage of 0.01.
With A11G A98G U100C the self-cleavage was 1.18.
A11G A33G U49C A52G showed a self-cleavage of 0.64.
U9G A51U A56G U57C U70C U120C gave a self-cleavage of 0.23.
Work on A11G A89U A126G yielded a self-cleavage of 1.85.
Work on U9C U49C A126G yielded a self-cleavage of 0.71.
In the case of A11G A110G A114C, the self-cleavage is reported as 0.04.
Variant U9C C32U U37C U87C A126U U127C has a self-cleavage of 0.52.
For C10A G14U A82C A117C U131C, the self-cleavage was 0.01.
A11G A36G U43A gave a self-cleavage of 1.48.
For U9C U37C A52G A111G, the self-cleavage was 0.02.
For C10A A56G A96G, the self-cleavage was 0.65.
With A11G A91G A111U the self-cleavage was 0.07.
Variant C10U A52G A56G A116G has a self-cleavage of 0.
With A11G A51G A95C the self-cleavage was 0.69.
In the case of A11G G74A A118U U131C, the self-cleavage is reported as 0.08.
With A11C G48A C113U the self-cleavage was 0.08.
A11G A63G U130C gave a self-cleavage of 1.57.
Work on U9C U49A A54G A126G yielded a self-cleavage of 0.52.
U9C U39C A59G gave a self-cleavage of 1.28.
A11G A33U U87C A96C U108A gave a self-cleavage of 0.05.
A11G U37C A96G showed a self-cleavage of 1.08.
Work on A11G A67G A78U U132C G137A yielded a self-cleavage of 0.41.
Work on A11G A33G A56G yielded a self-cleavage of 1.09.
A11G A52G A55U A78U showed a self-cleavage of 0.12.
Variant A11G A54G A118G has a self-cleavage of 0.92.
For U9C U37A G48A A51G U131C, the self-cleavage was 0.82.
With A11G A67G A92G A111G the self-cleavage was 0.07.
A11G C16G U39C C45A A66G A111U A118U showed a self-cleavage of 0.02.
For A11C A22G A23G U108C A118C, the self-cleavage was 0.01.
Work on U9C U38C A56G A62G yielded a self-cleavage of 1.24.
Work on A11G A23G U37C U43C yielded a self-cleavage of 1.06.
With A11G G50A A62G the self-cleavage was 1.54.
For A11G A23G U39A U102C U108C, the self-cleavage was 0.02.
U9C U12A A36G U49G C105U showed a self-cleavage of 0.21.
A11G U37C G50A A68G A126U showed a self-cleavage of 0.43.
C10U A63G U124A gave a self-cleavage of 0.51.
Work on U9C U19C U43C G79A A89G yielded a self-cleavage of 0.13.
For A11G U37C A78U A129G U132A, the self-cleavage was 0.15.
With A11G A36G U39C A89G the self-cleavage was 0.91.
A11G A63G U139C showed a self-cleavage of 0.95.
A11G A62U C109U gave a self-cleavage of 0.38.
Variant A11G A30G A60G A68G U122A has a self-cleavage of 0.51.
Work on U9C A110G A118U yielded a self-cleavage of 0.14.
A11G A30G U87C gave a self-cleavage of 1.53.
Variant A11G A27G G28A A51U has a self-cleavage of 0.96.
Work on U9C U43A A60G yielded a self-cleavage of 0.85.
Work on A11G G29C A36U A68G A78U A89G U108C U120C A135G yielded a self-cleavage of 0.
With A11C U12C A18G U26C A33G A51G A86U the self-cleavage was 0.75.
For C10U A11U A67G, the self-cleavage was 0.59.
For U9C U43C A54G A68G, the self-cleavage was 0.98.
Variant A11G A54G U108C A114U has a self-cleavage of 0.
In the case of A11G A24C U43C A110U, the self-cleavage is reported as 0.76.
A11G A110G A117G showed a self-cleavage of 0.18.
A11G A67U U120C showed a self-cleavage of 1.33.
Variant U9C U49C A69G A86C U122C has a self-cleavage of 0.58.
A11G A22U A111G gave a self-cleavage of 0.09.
U9C C16U A60G A63G gave a self-cleavage of 0.73.
A11G A18G A55G showed a self-cleavage of 1.11.
In the case of A11G A22G U39C, the self-cleavage is reported as 0.65.
A11G A64G A110G gave a self-cleavage of 0.08.
A11G A27U U43A A64G A95G U103C gave a self-cleavage of 1.32.
U9C U72C A114G A140G gave a self-cleavage of 2.19.
A11G A89G U103A U127A A140U gave a self-cleavage of 0.74.
For U9C U26C U38C, the self-cleavage was 1.6.
A11G A23G A51U gave a self-cleavage of 1.2.
For A11C U39A A51U A64G U72A A129G, the self-cleavage was 0.15.
A11C A27G A30G A96G U108A gave a self-cleavage of 0.06.
In the case of A11G A67G A78G, the self-cleavage is reported as 0.23.
For U9C C34U A111G, the self-cleavage was 0.04.
For A11G A86G A98U, the self-cleavage was 0.47.
In the case of A11G A23G A36G U37A A125G U130C, the self-cleavage is reported as 0.34.
With U9C C85U A94G the self-cleavage was 0.49.
For A11G A13G A55G A95G U97C, the self-cleavage was 0.67.
A11G A55G A60G showed a self-cleavage of 0.85.
For A11G A22U A89U, the self-cleavage was 1.08.
A11G A51G A63U U102C showed a self-cleavage of 1.38.
A11G A13G A66G G84A U130G showed a self-cleavage of 1.46.
Work on A11G A78C A90G yielded a self-cleavage of 0.25.
In the case of U9C C16G A24U U38C A90U A114G, the self-cleavage is reported as 0.87.
In the case of U9C U38C A60G U124C U132C A140G, the self-cleavage is reported as 0.16.
Work on U9C U39A U122C A125C yielded a self-cleavage of 0.87.
A11G A55G A90G A116G showed a self-cleavage of 0.62.
For A11G A52G G80C U97A U127C A129G, the self-cleavage was 0.01.
Variant U9G A69G A94G A98G A125U U139C has a self-cleavage of 0.76.
A11G A59G U108C A111G A140G gave a self-cleavage of 0.03.
With U9C U39C A117G A140G the self-cleavage was 2.38.
U9C G14U G21U U120A showed a self-cleavage of 0.83.
